The numbers were not newly measured in PMC9501548, “Synthesis of Potential Antiviral Agents for SARS-CoV-2 Using Molecular Hybridization Approach” (Molecules, 2022), which cites them from elsewhere.

SMILES strings stand for the structures.

This series deals with RAW264.7 cells. Set-up: method as in PMID 34395311. Particulars: standard reference, against RAW264.7 cells; cited from earlier work.

By CC50 is commonly meant the concentration giving 50% cytotoxicity. Take `CCC(CC)COC(=O)[C@H](C)N[P@](=O)(OC[C@H]1O[C@@](C#N)(c2ccc3c(N)ncnn23)[C@H](O)[C@@H]1O)Oc1ccccc1` [Remdesivir]: the 50% cytotoxic concentration (CC50) is 58.1 µM.
